About 14,000 (4.5%) of roughly 310,000 compounds showed an effect of 50% or more. The effect is printed as a negative number. This is one part of the list.
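Note: peak tail current of the secondary pulse compared with the same well before compound.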

The target of this assay is human ether-à-go-go-related gene (hERG) potassium channel (human, UniProt Q12809). The experiment in a line: primary screen, population patch clamp on CHO cells stably expressing hERG.
Sequence of human ether-à-go-go-related gene (hERG) potassium channel (Q12809 whole entry, looked up): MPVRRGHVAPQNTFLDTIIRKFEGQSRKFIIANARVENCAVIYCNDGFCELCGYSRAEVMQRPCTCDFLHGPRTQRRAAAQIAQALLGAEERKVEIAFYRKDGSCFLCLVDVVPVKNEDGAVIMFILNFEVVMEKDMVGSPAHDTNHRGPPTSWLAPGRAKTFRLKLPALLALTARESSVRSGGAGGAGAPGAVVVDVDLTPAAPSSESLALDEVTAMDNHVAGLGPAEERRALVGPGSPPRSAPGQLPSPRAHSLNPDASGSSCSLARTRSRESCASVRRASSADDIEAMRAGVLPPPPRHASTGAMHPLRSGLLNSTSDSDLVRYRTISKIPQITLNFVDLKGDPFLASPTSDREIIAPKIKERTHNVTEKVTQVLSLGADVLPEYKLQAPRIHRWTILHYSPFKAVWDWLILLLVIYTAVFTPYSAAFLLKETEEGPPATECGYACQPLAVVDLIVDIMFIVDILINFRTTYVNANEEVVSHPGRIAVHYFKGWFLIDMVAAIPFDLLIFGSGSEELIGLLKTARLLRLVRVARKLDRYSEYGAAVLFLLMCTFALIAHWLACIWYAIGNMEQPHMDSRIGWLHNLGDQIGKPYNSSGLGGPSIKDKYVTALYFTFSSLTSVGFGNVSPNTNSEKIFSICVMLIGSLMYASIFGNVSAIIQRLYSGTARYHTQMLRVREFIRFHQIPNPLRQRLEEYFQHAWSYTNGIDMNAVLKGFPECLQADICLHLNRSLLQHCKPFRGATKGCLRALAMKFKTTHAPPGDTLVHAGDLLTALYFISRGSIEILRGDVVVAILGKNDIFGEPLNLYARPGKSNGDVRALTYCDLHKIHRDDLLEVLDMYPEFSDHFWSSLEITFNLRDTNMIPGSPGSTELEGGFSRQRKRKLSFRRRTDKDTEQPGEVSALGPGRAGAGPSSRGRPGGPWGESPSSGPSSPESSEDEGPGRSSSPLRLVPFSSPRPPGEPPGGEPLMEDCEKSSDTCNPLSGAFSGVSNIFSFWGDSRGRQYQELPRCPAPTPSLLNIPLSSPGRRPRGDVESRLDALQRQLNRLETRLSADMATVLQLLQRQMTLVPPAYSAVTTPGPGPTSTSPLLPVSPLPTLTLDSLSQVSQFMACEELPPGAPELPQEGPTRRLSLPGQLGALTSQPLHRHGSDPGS
For the compound `O=C(NCCCN1CCCC1)c1cccc(N2CCCC2=O)c1`, the “hERG current change (%, negative = inhibition) at 10uM” value stood at 15.6%.
Under `CS(=O)(=O)N(Cc1ccccc1)c1ccccc1C(=O)Nc1ccccc1C(=O)NCc1ccco1` stands -21.1%.
Under `COc1ccc(NC(C)=O)cc1CP(=O)(c1ccccc1)c1ccccc1` stands 22.8%.
Under `O=C(CN(C(=O)c1csnn1)c1cccc2c1CCCC2)NCc1ccccc1` stands -5.19%; under `N#C/C(=C\c1c[nH]c2ccccc12)c1nnc2n1CCCCC2`, -29.5%; under `COC(=O)C1C2C=CC3(CN(c4ccc(Cl)c(F)c4)C(=O)C13)O2` (stereo not shown), 4.99%.
As for `COc1ccccc1CNC(=O)CNC(=O)[C@@H]1Cc2ccccc2CN1`, the “hERG current change (%, negative = inhibition) at 10uM” value is given as 1.14%.
As to `c1cncc(CNc2ncnc3ccc(-c4ccoc4)cc23)c1`, the “hERG current change (%, negative = inhibition) at 10uM” value was -71.4%.
Take `O=C(OCCN1CCN(c2ncc(C(F)(F)F)cc2Cl)CC1)c1ccc(F)cc1`: the “hERG current change (%, negative = inhibition) at 10uM” value came to 0.119%.
As for `CC1CC(C)CN(C(=O)CSc2nnc(-c3ccc(F)cc3)o2)C1` (stereo not shown), the figure is -16.9%; as for `CCn1cnc2sc(C(=O)N3CCN(c4ccc(OC)cc4)CC3)c(C)c2c1=O`, -12.6%; as for `COc1ccc(Nc2nc3ccccc3n3nnnc23)cc1`, -7.93%.
Under `CC1CCCC(NC(=O)C2c3ccccc3C(=O)N2Cc2cccs2)C1C` (stereo not shown) stands -34.7%; under `C=CCN1C(=O)C2C(C(=O)NCc3ccccc3)C3C=CC2(O3)C1C(=O)NC(C)(C)C` (stereo not shown), 5.87%.
Turning to `O=C(c1cccc(C(F)(F)F)c1)C1CCCN(C(=O)C2CCOCC2)C1` (stereo not shown), the “hERG current change (%, negative = inhibition) at 10uM” value was -51.3%.
Under `COC(=O)C1CN(C(=O)C(C)Oc2ccccc2F)c2ccccc2O1` (stereo not shown) stands 15.6%.
For `O=C(CN1C(=O)NC2(CCCC2)C1=O)Nc1cccc(-c2nnc3n2CCCCC3)c1`, the “hERG current change (%, negative = inhibition) at 10uM” value is on record as 0.285%.
On to `CCN1CCN(c2cc(C)c3cc(NC(=O)c4cccc(OC)c4)ccc3n2)CC1`, for which the “hERG current change (%, negative = inhibition) at 10uM” value is recorded as -50.9%.
Under `Cc1ccc(NC(=O)CN2C(=O)NC3(CCc4ccccc43)C2=O)cc1` (stereo not shown) stands 8.14%.
Under `CC(=O)C1=C(O)C(=O)N(c2ccc(O)cc2)C1c1cccc(F)c1` (stereo not shown) stands 22.4%; under `COc1ccc(/C=C2\SC(=O)N(CC(=O)NCCC(C)C)C2=O)cc1OC`, -8.73%.
As for `COc1ccc(S(=O)(=O)NC2CCCC2)c(OC)c1`, the figure is 9.46%.
In the case of `CCOC(=O)N1CCN(C(=O)CCN2C(=O)c3ccccc3S2(=O)=O)CC1`, the “hERG current change (%, negative = inhibition) at 10uM” value was 5.79%.
Under `COc1ccc(C2(C)NC(=O)N(CC(=O)Nc3ccc(-c4nc5ccc(C)cc5s4)cc3)C2=O)cc1` (stereo not shown) stands 24.7%.
As for `COc1ccc(CNC(c2ccccc2)c2ccc(Cl)cc2)cc1` (stereo not shown), the figure is 6.38%; as for `Cc1nc2cc(C(F)(F)F)ccc2n1C`, -1.2%; as for `CCOC(=O)c1c(NC(=O)c2ccc(C)cc2)sc2c1CC(C)(C)OC2`, 4.97%.
Under `Cc1nc(-c2ccc([N+](=O)[O-])cc2)c(-c2ccccc2)o1` stands -26.6%; under `COCCNC(=O)c1ccc(CS(=O)(=O)c2ccc(Cl)cc2)o1`, 12.1%.
Regarding `O=C(NNC(=S)NCc1ccccc1)c1ccccc1OC(F)F`, the “hERG current change (%, negative = inhibition) at 10uM” value turned out to be 10.8%.
Under `CC(=O)N1CCN=C1SCc1cccc(Cl)c1` stands -3.91%.
Under `COc1ccc(/C=N/OC(=O)Nc2ccccc2OC)cc1` stands -10.7%; under `Oc1[nH]c2ccc(Br)cc2c1N=NC(=S)N1CCOCC1`, 11.5%.
As for `COc1ccc(CCNC(=O)COC(=O)Cc2ccccc2)cc1`, the figure is 9.35%; as for `CCc1nnc(NC(=O)CSc2nnc(-c3c[nH]c4ccccc34)n2CCOC)s1`, -8.63%; as for `COc1cc(OC)cc(C(=O)N[C@H](C(=O)Nc2cc(F)ccc2C)C(C)C)c1`, 8.53%.
With `Cc1ccc(Cl)cc1NC1=C/C(=N\S(=O)(=O)c2cccs2)c2ccccc2C1=O`, the “hERG current change (%, negative = inhibition) at 10uM” value was found to be 3.07%.
As for `O=C(c1ccc2nc[nH]c2c1)N1CCN(c2cccc(C(F)(F)F)c2)CC1`, the figure is -11.4%.
Under `O=C(CSc1ccc2c(c1)OCCO2)NC(=O)NC1CCCC1` stands -4.02%; under `CSc1ccc(Cc2ccc(Cl)cc2Cl)nn1`, 0.552%; under `CCCCSc1nsc(NC(C)=O)n1`, -10.7%.
As for `O=C(O)c1cccc(NC(=O)c2cccc(S(=O)(=O)Nc3cccc([N+](=O)[O-])c3)c2)c1`, the figure is -0.182%; as for `C=CCn1c(COc2ccccc2F)nnc1SCC(=O)Nc1cc(C)on1`, 16.1%; as for `Cc1sc2c(c1C)c(=O)n(-c1ccccc1)c1nnc(C)n21`, 7.61%.
Turning to `CC(C)NS(=O)(=O)c1ccc(OCC(=O)NCc2ccccc2)cc1`, the “hERG current change (%, negative = inhibition) at 10uM” value came to 6.16%.
On to `Cc1ccccc1-c1cc2nc(C)c(Cl)c(=O)n2[nH]1`, for which the “hERG current change (%, negative = inhibition) at 10uM” value is reported as -8.26%.
As to `COc1ccc2nc(C)cc(SCC(=O)N/N=C/c3ccc(O)c(O)c3)c2c1`, the “hERG current change (%, negative = inhibition) at 10uM” value is listed as 19.9%.
Under `Cc1ccc(/C=C/C(=O)C2C(=O)c3ccccc3C2=O)cc1` stands 12%; under `CN(C(=O)CC1C(=O)NCCN1C/C=C/c1ccccc1)C1CCOCC1` (stereo not shown), 10.5%; under `COc1ccc(CNC(=O)c2c(O)c3cc(OC)c(OC)cc3[nH]c2=O)cc1OC`, 17.8%.
Under `O=c1c2ccccc2nc(SCc2cn3ccsc3n2)n1-c1ccccc1F` stands 4.16%; under `O=C(NCCC1=CCCCC1)C1CCN(S(=O)(=O)c2cnc[nH]2)CC1`, 2.4%.
As for `CC(=O)NS(=O)(=O)c1ccc(N)cc1`, the figure is -0.205%; as for `COc1ccc(C(=O)COC(=O)c2cccnc2SC)cc1`, 4.75%.
Take `COc1ccc(CC(CN)c2ccccc2)cc1` (stereo not shown): the “hERG current change (%, negative = inhibition) at 10uM” value is recorded as 5.96%.
Under `CC(c1ccccc1)n1c(N2CCN(C)CC2)nc2c1c(=O)[nH]c(=O)n2C` (stereo not shown) stands -13.1%; under `O=S(=O)(c1ccc(-c2csc(=Nc3ccccc3)n2CCCN2CCOCC2)cc1)N1CCOCC1`, -40.9%; under `c1ccc2c(c1)CCc1snnc1-2`, 10%.
Under `COC/C=C/C1=CC2=CC(=O)C(C)(OC(=O)c3cnc4ccccc4n3)C(=O)C2=CN1CC(C)C` (stereo not shown) stands 17%; under `COc1ccc(CCNC(=O)CCNS(=O)(=O)c2ccc3c(c2)CCN3C(C)=O)cc1OC`, -7.79%; under `COc1cc(NC(=S)NCCC(c2ccccc2)c2ccccc2)cc(OC)c1`, 3.35%.
Take `N#CCc1c(C#N)c(N)nc(N2CCCC(O)C2)c1C#N` (stereo not shown): the “hERG current change (%, negative = inhibition) at 10uM” value is recorded as 9.17%.
In the case of `CCSc1cc(N2CC(C)OC(C)C2)nc(-c2ccccc2Cl)n1` (stereo not shown), the “hERG current change (%, negative = inhibition) at 10uM” value was -8.67%.
As for `CCCCN(C(=O)Cn1ncc(Cl)c(Cl)c1=O)c1c(N)n(CC(C)C)c(=O)[nH]c1=O`, the figure is 26.1%; as for `C/C=C/c1ccc(OCCCn2cncn2)c(OC)c1`, 6.41%.
Consider `O=C(Cn1ccc(NC(=O)OCc2ccccc2)nc1=O)NCc1nc2ccccc2[nH]1`, for which the “hERG current change (%, negative = inhibition) at 10uM” value turned out to be 21.2%.
Under `O=C(O)CCn1c(-c2ccccc2)cc2c1CCCC2=O` stands 14.1%; under `CCC1=C(OC(=O)N(CC)CC)N2C(=O)OC(=NCCc3c[nH]c4ccccc34)[C@]2(C)[C@H]2C1=CC[C@H]1C(=O)N(C)C(=O)[C@H]12`, 6.46%.
As for `COc1ccccc1Nc1nc(-c2c(C)[nH]c3ccccc23)cs1`, the figure is 16.1%; as for `O=C(Nc1cccc([N+](=O)[O-])c1)c1ccc2c(c1)OCCO2`, 11.9%; as for `CNP(=O)(Oc1ccccc1)OC12CC3CC(CC(C3)C1)C2` (stereo not shown), -2.75%.
`COc1ccc(-c2cc(=O)[nH][nH]2)cc1`: the “hERG current change (%, negative = inhibition) at 10uM” value was 5.23%.
Under `C=CCn1c(C)cc(C(=O)CSc2nnc(NC(C)C)s2)c1C` stands -0.729%.
As for `CSc1nc2ccccc2cc1/C=C(\C#N)c1ccc(Cl)cc1Cl`, the figure is 4.91%; as for `CCOC(=O)Cn1c(O)c(N=NC(=O)CNC(=O)Cc2ccccc2)c2ccccc21`, 1.27%.
Consider `O=C(c1ccco1)N1C(=O)c2cccc3cccc1c23`, for which the “hERG current change (%, negative = inhibition) at 10uM” value was 2.69%.
Consider `CN1CCN(c2ccc(N)cc2Cl)CC1.Cl`, for which the “hERG current change (%, negative = inhibition) at 10uM” value is listed as 0.517%.
As for `CSc1ccc(S(=O)(=O)Nc2c(C)n(C)n(-c3ccccc3)c2=O)cc1`, the figure is -0.0654%.
Under `NS(=O)(=O)c1ccc(NC(=O)COC(=O)CC2Sc3ccccc3NC2=O)cc1` (stereo not shown) stands -1.35%; under `Cn1c(=O)n(Cc2ccccc2)c(=O)c2c1nc1n2CCCN1CCc1ccccc1`, -26%; under `O=C(COc1ccc(-n2cnnn2)cc1)Nc1ccccc1OC(F)F`, 4.44%.
Consider `O=C(CCCOc1ccc(Br)cc1)Nc1nnc(C2CC2)s1`, for which the “hERG current change (%, negative = inhibition) at 10uM” value stood at 18.5%.
For the compound `O=C(Nc1ccc(Cl)c(Cl)c1)N1CCOCC1`, the “hERG current change (%, negative = inhibition) at 10uM” value was 4.52%.
Under `COc1ccc(NC(=O)C2CCN(S(=O)(=O)c3cccs3)CC2)cc1OC` stands 10.7%; under `CC1CCCC(NC2CCCCNC2=O)C1` (stereo not shown), 4.58%; under `C[C@@H]1CN(C(=O)c2ccc(OC3CCN(S(=O)(=O)N(C)C)CC3)cc2)C[C@H](C)O1`, 14.9%.
In the case of `CC(Oc1ccccc1)C(=O)N1CCC2(CC1)Oc1ccc(F)cc1C(=O)C21CC(c2ccccc2)=NO1` (stereo not shown), the “hERG current change (%, negative = inhibition) at 10uM” value was 17.1%.
As for `COc1ccc(-c2c(C)n([O-])c(C)c(-c3ccccc3)[n+]2=O)cc1OC`, the figure is 7.35%.

Source of the values: PMC4336329 (PLoS ONE, 2015).
